PubChem BioAssay AID686979 (National Center for Advancing Translational Sciences (NCATS), 2013)
Values joined by “and” are separate entries in the source; they are usually repeats but may differ in a detail not shown here. Identical values can stand only once. Hit rate of the full screen: of about 420,000 compounds, about 50,000 (12%) were called active. This list was built around the results that the source calls inconclusive (neither active nor inactive); the mix of calls is not that of the screen. The call rests on the fitted dose curve; in most records, active means well fitted inhibition curve with a large enough effect; inconclusive means small, poorly fitted or top-dose-only effect; inactive means flat fitted curve, though single readings scatter. Potencies beside an inconclusive call are fits to weak or partial responses and may not hold up.

Assay: qHTS for Inhibitors of human tyrosyl-DNA phosphodiesterase 1 (TDP1): qHTS in cells in presence of CPT; further: nearly all actives have a fitted effect of over 55% in size
Details: chicken DT40 Tdp1-/-;hTDP1 cells + 20 nM CPT, ATP luminescence, 48 h; activity change, negative = growth inhibition: at 46.2 µM (top of the series)
Procedure, shortened: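 Chicken DT40 Tdp1-/- cells stably complemented with human TDP1 were seeded at 400 cells/well in medium containing 20 nM camptothecin, exposed to pin-transferred compounds, and grown at 37 °C for at least 48 hr. Viability was read as ATP luminescence.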
On the % scale 0 is the no-effect control and ±100 the full control effect; potency means the concentration at half of the fitted maximal effect; tags describe the fitted curve by direction and shape.

SMILES | Potency | activity change, negative = growth inhibition
COc1ccc(CNc2ccnc(-c3ccccc3C(F)(F)F)n2)c(OC)c1 | inconclusive: 18.4 µM [inhibitor, single point] | –
CCOC1=C2[C@H](c3ccc(CC)cc3)N(S(=O)(=O)c3ccc(C)cc3)C[C@H]2C(C#N)(C#N)C(C#N)(C#N)C1 | active: 3.66 µM | –
C(#CC1CCCC1)c1ccc2c(c1)COc1c3ccccc3nn1-2 | inconclusive: 20.6 µM [inhibitor, single point] | –
Cc1cc(Br)cc2c(C(=O)NCC3CCCO3)cc(-c3ccccc3)nc12 (stereo not given) | inconclusive: 16.4 µM [inhibitor, single point] | –
O=C(COC(=O)C1COc2ccccc2O1)Nc1cccc(F)c1 (stereo not given) | – | inactive: -22.6%
O=C(Nc1nnc(C2CC2)o1)c1ccc(S(=O)(=O)N2CCCCC2)cc1 | inconclusive: 29.1 µM [inhibitor, single point] | –
Cc1ccc(CNC(=O)c2cnn(-c3cccc(C)c3)c2C2CCN(C(=O)OC(C)(C)C)CC2)cc1 | active: 16.4 µM | –
CC(C)(C)NC(=O)C1C(c2ccccc2)=Nc2ccccc2N1C(=O)c1ccc(C(F)(F)F)cc1 (stereo not given) | inconclusive: 23.1 µM [inhibitor, single point] | –
COc1ccccc1Cc1nc2ccccc2nc1SCC(=O)Nc1cc(Cl)ccc1OC | inconclusive: 11.6 µM [inhibitor, partial curve] | –
C=CCn1c(SCC(=O)Nc2ccccc2OC)nc(O)c(CC)c1=O | – | inconclusive: -1.24% [inhibitor]
CCOC(=O)c1c(C)[nH]c(C(=O)OCC(=O)NCc2ccccc2)c1C | inconclusive: 20.6 µM [inhibitor, single point] | –
COc1ccc(NCN2C(=O)C3C4C=CC(C4)C3C2=O)cc1 (stereo not given) | – | inactive: -7.11%
CSc1ccccc1NS(=O)(=O)c1ccccc1 | – | inactive: -2.56%
COc1ccc(NC(=O)CN(C)S(=O)(=O)c2ccc(Br)s2)cc1OC | inconclusive: 25.9 µM [inhibitor, single point] | –
Cc1ccc(-c2cn3c(=S)[nH]nc3s2)cc1 | – | inactive: -27.2%
O=C1NC[C@H](Cc2ccc(O)cc2)N(C[C@@H]2CCCN2C[C@H](Cc2ccccc2)N2C[C@H](Cc3ccc(O)cc3)N(CCc3ccccc3)C(=O)C2=O)C1=O | inconclusive: 29.1 µM [inhibitor, single point] | –
C=CCSc1nnc(NC(=O)C2CC(=O)N(Cc3ccc(C)cc3)C2)s1 (stereo not given) | – | inactive: -16.1%
COC(=O)C1=CN(c2ccc(Oc3ccccc3)cc2)C(N)=C(C#N)C1c1ccccc1 (stereo not given) | inconclusive: 20.6 µM [inhibitor, single point] | –
C[C@@H]1CC[C@@]2(OC1)OC1CC3C4CC=C5CC(O)CCC5(C)C4CCC3(C)C1[C@@H]2C (stereo not given in full) | – | inactive: 5.08% [at 9.04 µM]
CCOc1ccccc1Nc1nc(-c2sc(NC(=O)c3cccc(Cl)c3)nc2C)cs1 | inconclusive: 16.4 µM [inhibitor, single point] | –
COCCNC(=O)CSc1nc(-c2ccccc2)[nH]c1-c1ccc(OC)cc1 | – | inactive: -22.4%
COc1ccc(-c2cn(-c3ccc(C)c(Cl)c3)c(=S)[nH]2)cc1OC | inconclusive: 29.1 µM [inhibitor, single point] | –
O=C(c1cc(-c2ccncc2)nc2ccccc12)N1CCN(c2ccccn2)CC1 | active: 8.91 µM | –
CCN1C(Nc2ccccc2)=NC[C@@H]1C | – | inactive: 10.4%

SMILES | Potency | activity change, negative = growth inhibition
CCc1ccccc1NC(=O)c1nnn(Cc2ccc(Cl)cc2)c1N | inconclusive: 29.1 µM [inhibitor, single point] | –
CCOC(=O)c1c(S(=O)(=O)N2CCC(C(=O)Nc3ccc(C)cc3C)CC2)c(C)n(C)c1C | – | inactive: -11.4%
COc1ccc(NC(=S)N2CCN(C(=O)C3CCCO3)CC2)c(OC)c1 (stereo not given) | – | inactive: 2.67%
Fc1ccc2[nH]c(-c3cccs3)cc2c1 | – | inactive: -5.52%
COc1cccc(-n2c(SCC(=O)Nc3nnc(C)s3)nc3c([nH]c4ccccc43)c2=O)c1 | inconclusive: 29.1 µM [inhibitor, single point] | –
COc1cc(-c2nc3ccc4ccccc4c3c3c2CCC3)cc(OC)c1O | active: 20.6 µM | –
O=C(CN1C(=O)NC2(CCCC2)C1=O)N1CCN(S(=O)(=O)c2ccccc2)CC1 | – | inconclusive: -19.4% [inhibitor]
Cc1ccc(NC(=O)CSc2n[nH]c(=O)n2C2CC2)cc1S(=O)(=O)N1CCOCC1 | inconclusive: 23.1 µM [inhibitor, partial curve] | –
CCOC(=O)C1=C(CN2CCN(c3ccc(OC)cc3)CC2)NC(=O)NC1c1ccc(Cl)cc1 (stereo not given) | active: 20.6 µM | –
COc1ccc(/C=C/C(=O)Nc2ccc(C)c(S(=O)(=O)N3CCOCC3)c2)cc1 | inconclusive: 18.4 µM [inhibitor, single point] | –
FC(F)(F)c1nc(NCc2ccccc2)c2nnn(Cc3ccccc3)c2n1 | inconclusive: 23.1 µM [inhibitor, single point] | –
Cc1cc(CN2CCN(c3cccc(C)c3C)CC2)cs1 | active: 23.1 µM | –
Cc1noc(C)c1-c1ccc(C(=O)Nc2ccc(C(C)C)cc2)c2occc12 | active: 11.6 µM | –
CCCCN1C(=O)C(CC(=O)NCCc2ccccn2)CC(C(=O)N2CCOCC2)=C1C (stereo not given) | – | inactive: -7.33%
Cc1cc(C(=O)NCCC(c2ccccc2)c2ccccc2)c(C)o1 | active: 18.4 µM | –
Cc1ccc(OCC(=O)O)c(-n2nc3ccccc3n2)c1 | – | inactive: 0.0685%
COc1ccccc1C(=O)NCCN1CCC(n2c(=O)[nH]c3ccccc32)CC1 | inconclusive: 18.4 µM [inhibitor, single point] | –
COc1ccc(-c2nc3ccccc3o2)cc1NC(=O)c1ccc(Br)o1 | inconclusive: 20.6 µM [inhibitor, single point] | –
CCc1nc(SCC(=O)Nc2ccc(C(=O)O)cc2)n[nH]1 | – | inconclusive: -31.4% [inhibitor]
N#Cc1ccc(-c2ccco2)nc1SCC(=O)c1ccc(Cl)cc1 | inconclusive: 18.4 µM [inhibitor, single point] | –
C[C@@H](C(=O)N1CCN(C(=O)OC(C)(C)C)CC1)n1cc(CCCN=C(NC(=O)OC(C)(C)C)NC(=O)OC(C)(C)C)nn1 | inconclusive: 18.4 µM [inhibitor, single point] | –
CCSc1ncc(Cl)c(C(=O)Nc2sc3c(c2C(=O)NCc2cccnc2)CCCC3)n1 | – | inactive: -27.6%
COC(=O)[C@]12CCCCC=C1N(Cc1ccc3c(c1)OCO3)C(=O)[C@H](CC(=O)NCc1cccs1)C2 | inconclusive: 29.1 µM [inhibitor, single point] | –
CC/C(=C\c1ccccc1)c1cccc2oc3ccccc3c12 | inconclusive: 35.5 µM [inhibitor, partial curve, poor fit] | –

SMILES | Potency | activity change, negative = growth inhibition
Cc1cc2nc(CS(=O)(=O)c3ccccc3)cc(=O)n2[nH]1 | – | inactive: 9.05%
Cc1ccc(Cn2cc(C(=O)c3ccc4c(c3)OCO4)c(=O)c3cc(C)ccc32)cc1 | inconclusive: 29.1 µM [inhibitor, single point] | –
O=C(CSCc1ccc(C(=O)O)cc1)Nc1ccc2ccccc2c1 | – | inactive: -0.802%
COc1ccc(C)cc1NC(=O)N1CC(C)Sc2ccccc21 (stereo not given) | – | inconclusive: -34.5% [inhibitor]
CC(=O)C1=C(C)OC(N)=C(C#N)C1c1cc([N+](=O)[O-])ccc1Cl (stereo not given) | active: 4.11 µM | –
CSc1ccccc1OCc1cc(C(=O)N[C@H]2CCCCNC2=O)no1 | inconclusive: 25.9 µM [inhibitor, single point] | –
Cc1ccc(-c2nc(CSc3nncn4c3cc3occc34)c(C)o2)cc1 | inconclusive: 20.6 µM [inhibitor, single point] | –
CCCNC(=O)c1ccccc1NC(=O)c1ccc2c(c1)NC(=O)C(C)S2 (stereo not given) | active: 10.3 µM | –
Cc1cccc(Cn2c(Sc3nc(C)cs3)nc3c2c(=O)[nH]c(=O)n3C)c1 | inconclusive: 20.6 µM [inhibitor, single point] | –
CC(C)c1ccc2[nH]c(O)c(N=NC(=O)c3cccc(S(=O)(=O)Nc4ccccc4Cl)c3)c2c1 | – | inactive: -3.65%
COC(=O)Nc1ccc(SCC(=O)c2cccc([N+](=O)[O-])c2)cc1 | inconclusive: 20.6 µM [inhibitor, single point] | –
CCOc1ccccc1C1CC(=O)Nc2cc(OC)c(OC)cc21 (stereo not given) | inconclusive: 23.1 µM [inhibitor, single point] | –
CN1CCCN(C(=O)c2cc(-c3cccc4ccccc34)nc3ccccc23)CC1 | active: 16.4 µM | –
O=C1OCC(CO)(CO)N=C1NNc1ccc(Cl)c(Cl)c1 | – | inactive: -6.42%
O=C(CCN1CCN2CCCC2C1)N1c2ccccc2Sc2ccc(Cl)cc21 (stereo not given) | inconclusive: 33.5 µM [inhibitor, single point] and inconclusive: 29.1 µM [inhibitor, single point] | –
CCOC(=O)c1cc(-c2cccs2)nc2c1c(C)nn2-c1ccccn1 | active: 14.6 µM | –
Cc1ccc2nc(/C(C#N)=C\c3cc(C)n(-c4cccc([N+](=O)[O-])c4)c3C)[nH]c2c1 | active: 8.2 µM | –
CC1CCC(C(C)C)C(OC(=O)C2=C3c4ccccc4S(=O)(=O)N3CC2)C1 (stereo not given) | inconclusive: 29.1 µM [inhibitor, single point] | –
Cc1cc(C(=O)N/N=C2\CC(=O)CC(C)(C)C2)c(C)n1-c1ccccc1 | inconclusive: 29.1 µM [inhibitor, partial curve] | –
Cn1nnc2c(NCc3ccco3)ncnc21 | – | inactive: -21%
COc1ccc(/C=C/C(=O)c2c(C)nc3ccccn23)cc1 | – | inactive: -12.1%
CCCCCCNc1cc2n(c(=O)n1)CCc1cc(OC)c(OC)cc1-2 | inconclusive: 35.5 µM [inhibitor, single point] | –
